Experimental data from article PMC4336329 (PLoS ONE, 2015).
The campaign covered roughly 310,000 compounds. About 14,000 (4.5%) showed an effect of 50% or more. Effects have a minus sign here. Some of the results follow.

target: human ether-à-go-go-related gene (hERG) potassium channel (human, UniProt Q12809); test: primary screen, population patch clamp on CHO cells stably expressing hERG
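Note: peak tail current of the secondary pulse compared with the same well before compound.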

Sequence of human ether-à-go-go-related gene (hERG) potassium channel (Q12809 whole entry, looked up): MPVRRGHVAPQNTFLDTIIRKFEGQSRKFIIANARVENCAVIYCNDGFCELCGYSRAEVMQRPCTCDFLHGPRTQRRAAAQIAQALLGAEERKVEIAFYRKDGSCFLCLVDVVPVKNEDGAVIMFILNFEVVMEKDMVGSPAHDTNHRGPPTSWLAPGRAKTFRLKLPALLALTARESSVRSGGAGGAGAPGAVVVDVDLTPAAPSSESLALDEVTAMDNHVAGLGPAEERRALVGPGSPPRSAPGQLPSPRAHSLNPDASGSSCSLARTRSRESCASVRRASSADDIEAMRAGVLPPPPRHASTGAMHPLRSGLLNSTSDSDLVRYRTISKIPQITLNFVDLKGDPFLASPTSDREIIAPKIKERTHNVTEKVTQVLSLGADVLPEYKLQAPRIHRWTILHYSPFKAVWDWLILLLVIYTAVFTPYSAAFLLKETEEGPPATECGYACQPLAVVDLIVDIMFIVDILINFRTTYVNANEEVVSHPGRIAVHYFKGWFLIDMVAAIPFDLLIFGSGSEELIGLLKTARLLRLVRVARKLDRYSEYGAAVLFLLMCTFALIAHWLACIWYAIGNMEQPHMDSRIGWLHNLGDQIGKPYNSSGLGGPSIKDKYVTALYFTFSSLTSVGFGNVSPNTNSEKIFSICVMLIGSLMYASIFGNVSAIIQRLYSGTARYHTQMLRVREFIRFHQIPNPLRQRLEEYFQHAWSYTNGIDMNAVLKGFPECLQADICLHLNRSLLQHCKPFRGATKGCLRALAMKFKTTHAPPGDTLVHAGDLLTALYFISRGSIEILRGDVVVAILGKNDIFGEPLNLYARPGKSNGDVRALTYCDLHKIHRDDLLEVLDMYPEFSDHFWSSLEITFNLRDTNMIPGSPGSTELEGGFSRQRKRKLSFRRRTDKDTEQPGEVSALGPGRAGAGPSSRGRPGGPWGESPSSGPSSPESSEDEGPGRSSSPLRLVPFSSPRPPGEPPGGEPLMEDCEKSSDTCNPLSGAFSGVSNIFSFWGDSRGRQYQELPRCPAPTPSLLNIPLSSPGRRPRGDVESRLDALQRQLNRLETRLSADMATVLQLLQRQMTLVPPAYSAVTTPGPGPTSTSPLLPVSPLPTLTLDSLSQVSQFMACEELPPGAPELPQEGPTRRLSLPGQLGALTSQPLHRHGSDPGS

In order of falling “hERG current change (%, negative = inhibition) at 10uM” value:
1. COc1ccc(NC(=O)CSc2nnc(CCC(=O)O)c(=O)n2N)cc1  20.7%
2. CCN1C(=O)CSC1=Nc1cccc(C(=O)O)c1  19.2%
3. CC(=O)c1ccc(-c2ccc(Cn3c(C)nc4cc(N)c(C)nc43)cc2)cc1  17.7%
4. Cc1ccc(-c2nnn(CC(=O)N(c3ccccc3F)C(C(=O)NC3CCCC3)c3ccncc3)n2)o1 (centres unmarked)  17.6%
5. CCN(CC)c1ccc(/C=N/n2c(-c3ccccc3Br)n[nH]c2=S)cc1  16.6%
6. S=c1[nH]nc(Cc2cccs2)n1-c1ccccc1  16.2%
7. Cc1cccc(CN2CCSc3sccc3C2=O)c1  14.5%
8. O=C(COC(=O)C12CC3CC(CC(Cl)(C3)C1)C2)Nc1ccc2[nH]c(=O)[nH]c2c1  11.5%
9. COc1cccc(/C=N/NC(=O)C(c2ccncc2)N2CCOCC2)c1 (centres unmarked)  11.1%
10. O=C(CN1C(=O)NC2(CCCC2)C1=O)Nc1ccc(S(=O)(=O)N2CCOCC2)cc1  10.4%
11. CCOC(=O)N1CCC(N2Cc3cccc(C(=O)Nc4ccc(OCC)cc4)c3C2=O)CC1  9.07%
12. COc1ccc(C2C3=C(CC(C)(C)CC3=O)OC(N)=C2[N+](=O)[O-])cc1 (centres unmarked)  8.74%
13. CC1=C(CC(=O)NCC(=O)NCC(=O)O)c2cc(F)ccc2/C1=C/c1ccc(S(C)=O)cc1 (centres unmarked)  8.36%
14. CC1=C(C(=O)OCC2CCCO2)C(c2cccc(O)c2)NC(=O)N1 (centres unmarked)  7.76%
15. N#C/C(=C/c1cccs1)c1ccccn1  7.54%
16. O/N=C/c1ccc2cccc(OCc3ccccc3)c2n1  7.43%
17. S=C(NCCc1ccccc1)Nc1ccccc1  7.3%
18. Cc1ccc(C(C)C)c(OCC(=O)NN=C(CCl)CCl)c1  7.07%
19. Cc1cc(-c2ccco2)n(CC(=O)NCc2ccccc2)n1  6.97%
20. Cn1c2c(c(=O)n(C)c1=O)C(NC(=O)c1cccs1)(C(F)(F)F)C(=O)N2 (centres unmarked)  5.38%
21. CCOC(=O)C(CC)(CC)/C(C)=N/NC(=O)CC#N  4.66%
22. COc1cccc(C(=O)NC(=S)Nc2ccc3c4c(cccc24)CC3)c1  2.15%
23. Cc1ccc(-n2nc3c(=O)n(CC(=O)NCCC4=CCCCC4)nc(C)c3c2C)cc1  2.08%
24. CCOC(=O)C(Cc1ccccc1)NC(=O)CCc1nnc2ccc(N3CCCC3)nn12 (centres unmarked)  1.11%
25. COc1cc(CNc2nnnn2C)ccc1OCc1c(F)cccc1Cl  0.756%
26. O=C(CCCN1C(=O)NC2(CCCC2)C1=O)N1CCN(S(=O)(=O)c2ccccc2)CC1  0.403%
27. O=C(O)c1ccc(S(=O)(=O)c2ccc([N+](=O)[O-])cc2[N+](=O)[O-])cc1  0.384%
28. C#CCOCCOCCOCCNc1nc(N2CCN(C(=O)[C@H](CCC(=O)O)n3cc(C(N)CC(C)C)nn3)CC2)nc(N2CCN(C(=O)[C@H](Cc3ccc(O)cc3)n3cc(C(N)CC(C)C)nn3)CC2)n1.Cl (some centres unmarked)  -0.138%
29. OCCCn1c(C2CCCN2c2nc(-c3ccc(F)cc3)cs2)nc2cc(Cl)c(Cl)cc21 (centres unmarked)  -0.34%
30. Cc1cc(C)c(S(=O)(=O)Nc2ccc3c(c2)CCC3)c(C)c1  -0.42%
31. Cc1cccc(N=Nc2ccc(N(C)C)cc2)c1  -1.6%
32. C=CC[C@H]1Cc2c(cccc2[N+](=O)[O-])[C@H](CC=C)N1  -2.02%
33. COc1ccc(NC(=O)CSc2nc(N)c3cc4c(nc3n2)CCCC4)c(OC)c1  -3.18%
34. Cc1ccc(C)c(NC(=O)CCCCCCCCCCC2COCCO2)c1 (centres unmarked)  -6.1%
35. CCOc1ccc2oc(-c3ccccc3)c(C(=O)N3CCN(C)CC3)c2c1  -9.67%
36. O=C(c1cn(-c2ccccc2)nc1-c1cccs1)N(CCO)Cc1ccccc1  -11.2%
37. CC(=O)c1c(N2CCC(C(N)=O)CC2)nc(=S)n(-c2ccccc2)c1C  -12.2%
38. COc1cccc(CN(C)CC(=O)NNC(=O)c2ccc(Cl)cc2)c1  -12.5%
39. COC(=O)CCCC1=CC2=CC(=O)C(C)(OC(=O)c3cccs3)C(=O)C2=CN1c1cccc(C#N)c1 (centres unmarked)  -15.4%
40. O=C(CS(=O)(=O)c1cn(Cc2ccc(F)cc2)c2ccccc12)N1CCOCC1  -16.7%
41. CCCCCCn1c(Br)nc2c1c(=O)n(C)c(=O)n2C  -22.3%
42. CCOC(=O)N1CCN(C(=O)c2ccccc2NC(=O)c2ccc(Br)cc2)CC1  -24.9%
43. CCOC(=O)CSc1nnc(-c2ccc(Cl)cc2Cl)o1  -25.5%
44. COc1ccc(S(=O)(=O)N(Cc2ccccc2)Cc2nc3ccccc3c(=O)[nH]2)cc1  -25.7%
45. O=C(CCC(=O)c1cccs1)OCc1ccc([N+](=O)[O-])cc1  -26%
46. O=C(CN1CCC(n2nnc3ccccc32)CC1)Nc1ccc2c(c1)CCC2  -39.3%
47. O=C(CN1C(=O)S/C(=C\c2ccccc2Cl)C1=O)NCCCn1ccnc1  -44.5%
48. O=S(=O)(NCc1c(Cl)cccc1Oc1ccccc1)c1ccc(F)cc1  -45.3%
49. CCC(=O)c1ccc(OCC(O)CNCc2ccc(F)cc2)cc1 (centres unmarked)  -52.2%
50. CCCc1nc2oc3c(=O)[nH]cnc3c2c2c1CCCC2  -56.5%
51. Cc1cnc(NC(=O)CSc2nnc(-c3cccs3)n2C)s1  -59.4%
52. Cc1nn(-c2ccccn2)c2nc(-c3cccs3)cc(C(=O)NCc3ccco3)c12  -67.3%
53. CCn1cc(C(=O)NCCCN2CC(C)CC(C)C2)c(=O)c2cc(S(=O)(=O)N(C)C3CCCCC3)ccc21 (centres unmarked)  -84.3%
